{
  "source": "paper PMC4336329",
  "about": "(PLoS ONE, 2015)",
  "note": "About 14,000 (4.5%) of roughly 310,000 compounds showed an effect of 50% or more. The effect is printed as a negative number. The list shows a part of the results.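 Note: peak tail current of the secondary pulse compared with the same well before compound.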",
  "data": [
    {"molecular_target": "human ether-à-go-go-related gene (hERG) potassium channel (human, UniProt Q12809)", "sequence (Q12809 whole entry, looked up)": "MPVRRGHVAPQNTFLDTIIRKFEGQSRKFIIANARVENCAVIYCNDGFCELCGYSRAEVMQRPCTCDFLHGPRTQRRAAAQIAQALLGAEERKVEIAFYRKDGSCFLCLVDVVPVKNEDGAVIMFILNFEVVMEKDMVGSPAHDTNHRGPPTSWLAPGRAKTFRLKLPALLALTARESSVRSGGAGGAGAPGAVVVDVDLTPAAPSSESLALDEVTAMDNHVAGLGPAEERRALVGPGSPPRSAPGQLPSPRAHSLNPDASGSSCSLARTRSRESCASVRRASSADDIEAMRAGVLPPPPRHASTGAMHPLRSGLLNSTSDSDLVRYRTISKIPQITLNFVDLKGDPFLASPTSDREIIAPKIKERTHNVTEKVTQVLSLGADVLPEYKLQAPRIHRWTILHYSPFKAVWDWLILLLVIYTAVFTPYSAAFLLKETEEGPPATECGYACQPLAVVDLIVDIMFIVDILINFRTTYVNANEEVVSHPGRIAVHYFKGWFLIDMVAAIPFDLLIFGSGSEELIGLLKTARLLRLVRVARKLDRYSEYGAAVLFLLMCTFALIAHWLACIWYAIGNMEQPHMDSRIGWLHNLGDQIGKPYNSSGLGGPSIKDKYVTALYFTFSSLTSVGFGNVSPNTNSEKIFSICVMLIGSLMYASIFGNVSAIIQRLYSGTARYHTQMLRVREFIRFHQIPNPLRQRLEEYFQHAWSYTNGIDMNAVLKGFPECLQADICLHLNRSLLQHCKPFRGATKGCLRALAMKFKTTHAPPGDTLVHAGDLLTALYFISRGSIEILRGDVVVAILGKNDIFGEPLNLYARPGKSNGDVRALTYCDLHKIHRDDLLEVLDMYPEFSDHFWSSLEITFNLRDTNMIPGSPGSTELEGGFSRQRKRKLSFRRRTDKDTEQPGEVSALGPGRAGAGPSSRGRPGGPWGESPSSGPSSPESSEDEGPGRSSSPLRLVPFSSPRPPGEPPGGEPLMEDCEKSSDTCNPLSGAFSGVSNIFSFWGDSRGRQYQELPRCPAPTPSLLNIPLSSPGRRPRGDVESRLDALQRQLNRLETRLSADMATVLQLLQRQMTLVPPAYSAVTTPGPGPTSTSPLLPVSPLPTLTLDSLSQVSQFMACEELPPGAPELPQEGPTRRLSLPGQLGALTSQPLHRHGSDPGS", "experiment": "primary screen, population patch clamp on CHO cells stably expressing hERG", "units": {"hERG current change (%, negative = inhibition) at 10uM": "%"}, "values": [
      {"smiles": "CCOc1ccccc1NC(=O)CN(c1ccc(C)cc1)S(=O)(=O)c1c(C)noc1C", "hERG current change (%, negative = inhibition) at 10uM": -7.79},
      {"smiles": "O=C1CCC(C(=O)N(c2ccccc2)C2(C(=O)NC3CCCCC3)CCCCC2)N1", "note": "(centres unmarked)", "hERG current change (%, negative = inhibition) at 10uM": 3.99},
      {"smiles": "CSc1nc2nccc(-c3ccc(Oc4ccccc4)cc3)n2n1", "hERG current change (%, negative = inhibition) at 10uM": -6.04},
      {"smiles": "Cc1ccc(C)c(CN2CCC(n3nnc4cc(F)ccc43)CC2)c1", "hERG current change (%, negative = inhibition) at 10uM": -21.2},
      {"smiles": "Cc1cc(C)c(C)c(S(=O)(=O)N2CCC(C(=O)NCc3ccco3)CC2)c1C", "hERG current change (%, negative = inhibition) at 10uM": -43.5},
      {"smiles": "C=CCN(CC=C)C(=O)COC(=O)c1n[nH]c2ccccc12", "hERG current change (%, negative = inhibition) at 10uM": -12},
      {"smiles": "CCc1c(O)nc(SCC(=O)Nc2nc3ccccc3s2)n(-c2ccccc2)c1=O", "hERG current change (%, negative = inhibition) at 10uM": 5.52},
      {"smiles": "CCCCc1nc2ccccc2c(NC(=O)CNC(C)(C)C)c1CCC.O=C(O)C(=O)O", "hERG current change (%, negative = inhibition) at 10uM": -18.1},
      {"smiles": "O=C(NC1CCCCC1)N(CCO)Cc1cc2cc3c(cc2[nH]c1=O)OCCO3", "hERG current change (%, negative = inhibition) at 10uM": 11.1},
      {"smiles": "O=C(NCc1ccc2c(c1)OCO2)c1cc(-n2cnnc2)ccc1Cl", "hERG current change (%, negative = inhibition) at 10uM": -22.5},
      {"smiles": "COc1ccc(CCNC(=O)/C(=C/c2cccnc2)NC(=O)c2ccccc2)cc1", "hERG current change (%, negative = inhibition) at 10uM": -47.2},
      {"smiles": "CN(c1cccc(NC(=O)c2ccc(C(C)(C)C)cc2)c1)S(C)(=O)=O", "hERG current change (%, negative = inhibition) at 10uM": -44.5},
      {"smiles": "COc1ccc(CNC(=O)Cn2cc(C(F)(F)F)ccc2=O)cc1", "hERG current change (%, negative = inhibition) at 10uM": 4.41},
      {"smiles": "Nc1ncncc1-c1ccc(Cl)cc1", "hERG current change (%, negative = inhibition) at 10uM": 1.28},
      {"smiles": "COc1ccc(Cl)cc1NC(=O)c1cc(-c2ccccc2O)n[nH]1", "hERG current change (%, negative = inhibition) at 10uM": 6.66},
      {"smiles": "Oc1c(/C=C/C=C/C=Nc2ccccc2)sc(=S)n1Cc1ccccc1", "hERG current change (%, negative = inhibition) at 10uM": -5.14},
      {"smiles": "O=C(CN1CCN(c2ccccn2)CC1)N1CCc2ccccc21", "hERG current change (%, negative = inhibition) at 10uM": 0.247},
      {"smiles": "COc1ccccc1CNCC(=O)Nc1ccc(N2CCOCC2)cc1.O=C(O)C(=O)O", "hERG current change (%, negative = inhibition) at 10uM": 1.57},
      {"smiles": "CCC(Oc1ccccc1)C(=O)Nc1nnc(S(=O)(=O)N2CCCCC2)s1", "note": "(centres unmarked)", "hERG current change (%, negative = inhibition) at 10uM": 12.8},
      {"smiles": "COC(=O)C1=C(c2ccc(-c3ccccc3)c(F)c2)C[C@@H]2CC[C@H]1N2C(=O)NCCCOC(C)C", "hERG current change (%, negative = inhibition) at 10uM": -8.7},
      {"smiles": "Cc1ccccc1NC(=O)COC(=O)C1CC2CCCC(C1)C2=O", "note": "(centres unmarked)", "hERG current change (%, negative = inhibition) at 10uM": 11.3},
      {"smiles": "Cc1cc(NC(=O)/C(C#N)=C/c2ccc(-c3ccc(SC(F)F)cc3)o2)n(-c2ccccc2)n1", "hERG current change (%, negative = inhibition) at 10uM": 10.3},
      {"smiles": "COc1cccc(OC)c1OCCCCCCN1CCN(C)CC1.Cl", "hERG current change (%, negative = inhibition) at 10uM": 8.54},
      {"smiles": "COc1ccc2nnc(-c3ccc(C(F)(F)F)cc3)n2n1", "hERG current change (%, negative = inhibition) at 10uM": 1.99},
      {"smiles": "COc1cccc2cc(C(=O)NCc3ccco3)c(=O)oc12", "hERG current change (%, negative = inhibition) at 10uM": 2.32},
      {"smiles": "O=C(/C=C/c1c(Cl)cccc1Cl)Nc1ccncc1", "hERG current change (%, negative = inhibition) at 10uM": 2.18},
      {"smiles": "COC(=O)CSc1nc(C)cc(N2CCOCC2)n1", "hERG current change (%, negative = inhibition) at 10uM": 7.89},
      {"smiles": "O=C1CC(=O)Nc2cc(S(=O)(=O)N3CCN(c4cccc(C(F)(F)F)c4)CC3)ccc2N1", "hERG current change (%, negative = inhibition) at 10uM": -11.3},
      {"smiles": "COC(=O)c1sccc1N(C)S(C)(=O)=O", "hERG current change (%, negative = inhibition) at 10uM": 22.7},
      {"smiles": "COc1ccc(C(=O)C2CCCN(Cc3cn[nH]c3-c3ccc(F)cc3)C2)cc1OC", "note": "(centres unmarked)", "hERG current change (%, negative = inhibition) at 10uM": -66.5},
      {"smiles": "Brc1cc2c(cc1/C=N/Nc1nc(N3CCOCC3)nc(N3CCOCC3)n1)OCO2", "hERG current change (%, negative = inhibition) at 10uM": -5},
      {"smiles": "C1CCC2(CC1)C1=C(CCCC1)Nc1nnnn12", "hERG current change (%, negative = inhibition) at 10uM": -2.9},
      {"smiles": "COc1ccc(NC(=O)C(CCSC)NC(N)=O)cc1NS(=O)(=O)c1ccc(F)cc1", "note": "(centres unmarked)", "hERG current change (%, negative = inhibition) at 10uM": 24.7},
      {"smiles": "CC(=O)NC1=NN(C(C)=O)C(C)(c2ccc(C)cc2)S1", "note": "(centres unmarked)", "hERG current change (%, negative = inhibition) at 10uM": 8.82},
      {"smiles": "COC(=O)c1sccc1NC(=O)CC1C(=O)NCCN1C(=O)c1ccc(N(C)C)cc1", "note": "(centres unmarked)", "hERG current change (%, negative = inhibition) at 10uM": 7.57},
      {"smiles": "N#CCC(=O)Nc1ccc(C(=O)Nc2cccc(S(N)(=O)=O)c2)cc1", "hERG current change (%, negative = inhibition) at 10uM": 29},
      {"smiles": "CC(C)c1ccc(-n2nc3ccc(N)cc3n2)cc1", "hERG current change (%, negative = inhibition) at 10uM": -2.17},
      {"smiles": "CC1CCCN(CCCNC(=O)C2CC(=O)N(c3ccc(F)c(Cl)c3)C2)C1", "note": "(centres unmarked)", "hERG current change (%, negative = inhibition) at 10uM": -37.9},
      {"smiles": "CCCNc1c(NC(=O)c2cccs2)c(=O)oc2ccccc12", "hERG current change (%, negative = inhibition) at 10uM": 13.3},
      {"smiles": "Cc1oc2ccc(O)cc2c1C(=O)OC(C)C", "hERG current change (%, negative = inhibition) at 10uM": 4.47},
      {"smiles": "O=C(O)COc1ccccc1/C=C1\\SC(=S)N(/N=C/c2ccccc2O)C1=O", "hERG current change (%, negative = inhibition) at 10uM": 38.2},
      {"smiles": "CC(=O)N1CCCN(Cc2cn(-c3cc(C)ccc3C)nc2-c2ccccc2)CC1", "hERG current change (%, negative = inhibition) at 10uM": -30.3},
      {"smiles": "Cc1cc(OCc2nn[nH]n2)c2c3c(c(=O)oc2c1)CCCC3", "hERG current change (%, negative = inhibition) at 10uM": 12.1},
      {"smiles": "O=C(CSc1nc2ccccc2n1CC(=O)N1CCCC1)Nc1nccs1", "hERG current change (%, negative = inhibition) at 10uM": -18.5}
    ]}
  ]
}
